Assay results taken from the supplement of paper PMC10126150.
Sequences with one replicate were seen in a single cluster, so their values are uncertain.
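Further: ATP exposure 15 min at 22 °C before imaging.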

Each sequence was assayed on ATP (assay: switch fluorescence ratio, 500 uM ATP over buffer (Cy3 cluster intensity, sum of 5 cycles each) (fold (ratio)); higher = stronger signal-on switching upon ATP binding; sequences stand for … in TCGTCGGCAGCGTCAGATGTGTATAAGAGACAGTTTTTTTTTTTTTTTTTTTTTTTTT…TC). Conditions: aptamer strand: ATP DNA aptamer (quencher-CACCTGGGGGAGTATTGCGGAGGAAGG + anchor), 100 nM annealed; ATP concentration: 500 uM; one replicate.
Summary of the method: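 Clusters with intensities outside 100-1000 RFU were excluded. The remaining Cy3-labelled switching-strand clusters on a modified Illumina MiSeq flow-cell had been annealed to 100 nM quencher-labelled ATP aptamer and imaged in selection buffer, then after 15 min with 500 uM ATP at 22 °C, for five cycles separated by NaOH stripping and re-annealing. The fluorescence ratio, averaged per switch-domain sequence, is each cluster's summed target-cycle Cy3 intensity over its summed buffer-cycle Cy3 intensity.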
AAGACGGCTC was tested, and the switch fluorescence ratio was 1.05.
For CTGTCGTGGT, the switch fluorescence ratio was 1.
TTTTACGATC was tested, and the switch fluorescence ratio was 1.04.
ACAAACGTA gave a switch fluorescence ratio of 1.51.
Sequence CAATCTTAAA has a switch fluorescence ratio of 0.981.
GCGGTATAAC gave a switch fluorescence ratio of 1.05.
For TAGCTTGTGA, the switch fluorescence ratio was 1.02.
ATGCAACGAA gave a switch fluorescence ratio of 0.989.
In the case of GCGTATAGTG, the switch fluorescence ratio is reported as 1.02.
CGCCAGGTTA showed a switch fluorescence ratio of 1.15.
Sequence CTCGAAACGA has a switch fluorescence ratio of 1.04.
AATGGTTCC gave a switch fluorescence ratio of 1.05.
With TCGTGTGTAG the switch fluorescence ratio was 1.02.
For TCCCGGAGCT, the switch fluorescence ratio was 2.75.
For ATTGATACCG, the switch fluorescence ratio was 1.01.
CACTTGGGGC was tested, and the switch fluorescence ratio was 1.04.
GGACTGTAGC showed a switch fluorescence ratio of 1.12.
In the case of TGCAGACTGG, the switch fluorescence ratio is reported as 1.02.
For TGTGATAGCC, the switch fluorescence ratio was 1.06.
GCCTCGCGAG gave a switch fluorescence ratio of 1.01.
GGGCCAGATG was tested, and the switch fluorescence ratio was 1.03.
CACGTAGGTG gave a switch fluorescence ratio of 1.16.
TGTGGGGGA gave a switch fluorescence ratio of 0.976.
AGCTCTACAA gave a switch fluorescence ratio of 1.12.
GGCATGTTAA showed a switch fluorescence ratio of 0.999.
For TTTCTGTTGA, the switch fluorescence ratio was 0.99.
GCGGTCGTTG showed a switch fluorescence ratio of 1.01.
TTATGATGTC was tested, and the switch fluorescence ratio was 1.13.
For TGTCATGGCA, the switch fluorescence ratio was 0.991.
In the case of TTCCTAAGCA, the switch fluorescence ratio is reported as 2.22.
GGTCCAGGGA was tested, and the switch fluorescence ratio was 0.852.
Sequence ACGTTGTTGG has a switch fluorescence ratio of 1.
CGCCTACAGC showed a switch fluorescence ratio of 1.05.
For GTAGGTAG, the switch fluorescence ratio was 1.03.
AAGGTGAGAG was tested, and the switch fluorescence ratio was 0.951.
GGGGAACATT showed a switch fluorescence ratio of 0.984.
In the case of TTGCCGGGCC, the switch fluorescence ratio is reported as 1.03.
Sequence GTTGATAGCA has a switch fluorescence ratio of 1.01.
With ATCGTGCATG the switch fluorescence ratio was 1.01.
GTAAATATTT showed a switch fluorescence ratio of 1.04.
Sequence ACACTGCAAT has a switch fluorescence ratio of 4.93.
GATATATTAA was tested, and the switch fluorescence ratio was 1.01.
Sequence TTGGCTTCGT has a switch fluorescence ratio of 0.983.
AGAGTTCGGG was tested, and the switch fluorescence ratio was 0.997.
For AAGCCACTTT, the switch fluorescence ratio was 1.09.
In the case of GTTGACCACT, the switch fluorescence ratio is reported as 0.987.
With ACTTGGGCCG the switch fluorescence ratio was 1.07.
ATATCGGTAC showed a switch fluorescence ratio of 1.07.
AAGCGCACCC showed a switch fluorescence ratio of 1.13.
In the case of GAACTGTATT, the switch fluorescence ratio is reported as 1.07.
Work on ACGTTGCTGG yielded a switch fluorescence ratio of 0.995.
CAACCTCACA gave a switch fluorescence ratio of 1.15.
For CTCTGTTGGC, the switch fluorescence ratio was 1.37.
In the case of AAAGTACAAT, the switch fluorescence ratio is reported as 1.17.
Work on CACCTAGCT yielded a switch fluorescence ratio of 1.09.
In the case of CTCATTCGGA, the switch fluorescence ratio is reported as 0.996.
CGTCACCAGC showed a switch fluorescence ratio of 0.989.
GTGCGACCTC was tested, and the switch fluorescence ratio was 1.11.
TACGAGTACT showed a switch fluorescence ratio of 1.08.
In the case of TTGGACGAAT, the switch fluorescence ratio is reported as 0.989.
Sequence ACGTTCCAAC has a switch fluorescence ratio of 1.13.
In the case of CTGTTTATGC, the switch fluorescence ratio is reported as 0.954.
For TATACTAAAT, the switch fluorescence ratio was 0.963.
Work on CGCACGTTCG yielded a switch fluorescence ratio of 1.05.
GGCAGGATGT showed a switch fluorescence ratio of 0.988.
With GGTTGGTCAG the switch fluorescence ratio was 1.03.
For CAGGACCACC, the switch fluorescence ratio was 1.03.
ATTCATCTGT gave a switch fluorescence ratio of 1.02.
In the case of GTCTTAATTC, the switch fluorescence ratio is reported as 1.02.
With AGATATCATA the switch fluorescence ratio was 0.98.
Work on CACTTCTGAT yielded a switch fluorescence ratio of 1.01.
With AGAGGTTAAT the switch fluorescence ratio was 1.04.
GCGTCGCTGC gave a switch fluorescence ratio of 1.09.
Work on GTGGTTGC yielded a switch fluorescence ratio of 1.09.
Sequence GTTTGTAAAT has a switch fluorescence ratio of 0.977.
With ACGTCTCTCA the switch fluorescence ratio was 1.08.
CAGTGCACGC gave a switch fluorescence ratio of 1.08.
Sequence TGTTTGTCAT has a switch fluorescence ratio of 0.978.
Sequence GGCAGCTAAC has a switch fluorescence ratio of 1.5.
TATATTTATT showed a switch fluorescence ratio of 0.982.
GTATTAAAA showed a switch fluorescence ratio of 1.03.
GAGCTGAACT showed a switch fluorescence ratio of 1.06.
With GTTGGTATAC the switch fluorescence ratio was 1.04.
Sequence GCTGAACACC has a switch fluorescence ratio of 1.02.
GGAGGTTTGT was tested, and the switch fluorescence ratio was 0.971.
CGGGAGCAGC gave a switch fluorescence ratio of 1.16.
With TGACTTCGCC the switch fluorescence ratio was 2.12.
TAAGACCGTA was tested, and the switch fluorescence ratio was 0.984.
For TCAACGTGTT, the switch fluorescence ratio was 0.968.
GGGTTAGCCC gave a switch fluorescence ratio of 0.999.
CATTACGGGC showed a switch fluorescence ratio of 1.06.
AAGGTGGCCG gave a switch fluorescence ratio of 0.952.
Sequence TATTTGTGCA has a switch fluorescence ratio of 1.02.
Sequence TCGAGATAG has a switch fluorescence ratio of 1.07.
With ACCTCTTTAG the switch fluorescence ratio was 0.963.
ATGCGTCTGC was tested, and the switch fluorescence ratio was 1.11.
Sequence TTCCTGGCTT has a switch fluorescence ratio of 1.02.
Sequence TTCTCGGTAT has a switch fluorescence ratio of 1.08.
Sequence GTTCGAGCTT has a switch fluorescence ratio of 1.02.
Sequence TAAACAGGCG has a switch fluorescence ratio of 0.986.
